# Measured values: PubChem BioAssay AID463173 (ICCB-Longwood Screening Facility, Harvard Medical School, 2010)
# Hit rate of the full screen: of about 52,000 compounds, about 4,300 (8.3%) were called active. Rule as the data show it: active = survival mostly below about 52% (no sharp cut-off); inactive = mostly above about 56%. The list shows a part of the results.
# Test system: DeltatarO mutant
# Assay: S. aureus survival, RN4220 and DeltatarO strains – OD600, teichoic acid synthesis inhibitors, primary screen (AID 463173)
# Settings: S. aureus RN4220 wild type/DeltatarO growth, OD600, 18 h, stronger effect = lower value, screened at 18.75 µg/mL (by protocol)
row,SMILES,survival
1,CC1=C(C(=O)Nc2ccc(Cl)cc2)C(c2ccccc2)n2ncc(C(=O)Nc3ccccc3)c2N1 (stereo unspecified),inactive: 64%
2,Cc1ccc(C)c(Cn2c(=O)c3c(nc4n3CCN4c3ccccc3)n(C)c2=O)c1,inactive: 79%
3,Cc1ccc(NC(=O)CN2C(=O)COc3ccc(S(=O)(=O)NC4CCCC4)cc32)cc1N(C)C,inactive: 84%
4,CC(=O)N1CCc2c(sc3c2c(=O)n(CCc2ccccc2)c(=O)n3Cc2ccccc2C)C1,inactive: 85%
5,CC(=O)Nc1n[nH]c(-c2ccc(C)cc2)c1C,inactive: 94%
6,CCSc1ncc(Cl)c(C(=O)Nc2sc3c(c2C(=O)NCCCOC)CCCC3)n1,inactive: 108%
7,COc1ccc(NC(=O)CSc2nc(-c3cccc(C)c3)[nH]c2-c2ccccc2)cc1OC,inactive: 51%
8,CCOC(=O)c1nc(NCc2ccc(Cl)cc2)c2c(C)noc2n1,inactive: 87%
9,CCC(=O)C1=C(c2ccc(C)cc2)N(C(=O)CC)n2c(nnc2C2CCCCC2)S1,inactive: 87%
10,CC(=O)N1CCc2cc(S(=O)(=O)NC(CC(C)C)C(=O)Nc3cc(C)cc(C)c3)ccc21 (stereo unspecified),inactive: 79%
11,Cc1cccc(C)c1NC(=O)CS(=O)(=O)c1nc(-c2ccc(Cl)cc2)cn1-c1ccccc1,inactive: 56%
12,Cc1c(Cl)cccc1NC(=O)CCOc1ccccc1,inactive: 142%
13,CCOc1ccc(Cn2c(=O)sc3ccccc32)cc1,inactive: 85%
14,COc1cc(C2CC(=O)Oc3c2c(=O)[nH]c2ccccc32)cc(OC)c1OC (stereo unspecified),inactive: 75%
15,Cc1ccc(-c2cc3nc(-c4ccccc4)cc(C(F)(F)F)n3n2)cc1,inactive: 69%
16,O=C(Oc1ccccc1F)c1nc(SCc2ccc(F)cc2)ncc1Cl,inactive: 93%
17,CCOc1ccc(Nc2c(S(=O)(=O)c3ccccc3)cnc3ccc(F)cc23)cc1,inactive: 92%
18,CC(=O)N1CCc2cc(Br)cc(S(=O)(=O)CCC(=O)N3CCN(c4ccccc4Cl)CC3)c21,inactive: 61%
19,COc1ccc(-c2nc3scc(CCNS(=O)(=O)c4ccc5c(c4)OCCO5)n3n2)cc1,inactive: 84%

row,SMILES,survival
1,Cc1ccc(CN(C(=O)COc2cc(C)c(Cl)c(C)c2)c2ccccn2)o1,inactive: 62%
2,CC(C)c1noc(-c2ccccc2OCC(=O)Nc2cccc([N+](=O)[O-])c2)n1,inactive: 62%
3,CN(C)C(=O)c1ccc(N(C)S(=O)(=O)c2ccccc2)cc1,inactive: 87%
4,CCN(CC)S(=O)(=O)c1ccc2c(c1)c(=O)c(C(=O)N1CCN(c3cc(Cl)ccc3C)CC1)cn2C,inactive: 79%
5,CC(C)c1nn2c(=O)cc(COC(=O)c3ccco3)nc2s1,inactive: 83%
6,Cc1[nH]c2ccccc2c1Cc1nnc(SCC(N)=O)n1Cc1ccco1,inactive: 99%
7,Cc1cc(C)c2sc(N3CCN(C(=O)c4ccc(N(C)C)cc4)CC3)nc2c1,inactive: 124%
8,Cc1ccc(S(=O)(=O)c2c(O)cc(C)c(NS(=O)(=O)c3ccc(Cl)cc3)c2C)cc1,inactive: 67%
9,COc1ccccc1N1CCN(S(=O)(=O)c2c(C)nc3sccn3c2=O)CC1,inactive: 80%
10,Cc1ccc(N2CC(NC(=O)c3cc4ccccc4o3)CC2=O)cc1 (stereo unspecified),inactive: 99%
11,CCCCNC(=O)c1cc2n(n1)CCCN(Cc1ccc(C)cc1)C2=O,active: 32%
12,CCOc1ccc(C(=O)Nc2ccc3oc(-c4ccc5ccccc5c4)nc3c2)cc1,inactive: 74%
13,COc1ccc(NC(=O)Cn2c(=O)n(Cc3ccccc3)c(=O)c3sc4ccccc4c32)cc1,inactive: 87%
14,O=C(CSc1nc(=O)[nH]c2c1CCCC2)NCc1ccccc1,inactive: 80%
15,COc1ccccc1C(=O)Nc1ccc(C(=O)OCc2cc(=O)n3nc(C4CC4)sc3n2)cc1,inactive: 72%
16,Cc1nn2c(C)c(C(=O)NC(C)(C)C)cnc2c1-c1ccc(F)cc1,inactive: 109%
17,Cc1c(C)c2cc3c(c(C)c2oc1=O)OCN(CCc1ccc(F)cc1)C3,active: 41%
18,Clc1ccc(CSc2nncn3c2cc2occc23)cc1,inactive: 47%
19,Cc1ccc(Nc2ncnc3c2nc2n3CCCC2)cc1F,inactive: 89%

row,SMILES,survival
1,Cc1nc2nc[nH]n2c(=O)c1NS(=O)(=O)c1ccc(Br)cc1,inactive: 95%
2,COc1ccccc1CNC(=O)C1CCN(S(=O)(=O)Cc2ccccc2)CC1,inactive: 74%
3,CCOC(=O)c1c(S(=O)(=O)N2CCC(C(=O)NCc3ccccc3Cl)CC2)c(C)n(C)c1C,inactive: 78%
4,COCCn1ccc2c(OCC(=O)Nc3cccc(C(F)(F)F)c3)cccc2c1=O,inactive: 101%
5,COc1ccc(N2CC(NC(=O)C(c3ccccc3)c3ccccc3)CC2=O)cc1 (stereo unspecified),inactive: 84%
6,COc1cccc(CNC(=O)c2ccc3c(c2)sc2nc(-c4cccc(OC)c4)cn23)c1,inactive: 65%
7,CCc1nc2nc(C)cc(Nc3cc(C)ccc3C)n2n1,inactive: 88%
8,CCOC(=O)c1ccc(NC(=O)Cn2nc(C)c3nn(-c4ccc(Cl)cc4)c(C)c3c2=O)cc1,inactive: 102%
9,O=C1c2ccccc2NC(c2ccncc2)N1c1ccccn1 (stereo unspecified),inactive: 101%
10,CCOC(=O)c1c(NC(=O)C(C)Sc2cn(CCNC(=O)c3ccc(OCC)cc3)c3ccccc23)sc2c1CCC2 (stereo unspecified),inactive: 92%
11,Cc1cccc(N2CCN(C(=O)c3cnn(-c4ccccc4)c3C3CCN(C(=O)OC(C)(C)C)CC3)CC2)c1C,inactive: 87%
12,COc1ccc(CNC(=O)C(=O)NCC(c2cccnc2)N2CCN(c3ccccc3)CC2)cc1 (stereo unspecified),inactive: 47%
13,Cc1cccc(N(C)S(=O)(=O)c2ccc3c(c2)NC(=O)CC(=O)N3)c1,inactive: 86%
14,Cc1cc(C)cc(-n2c(SCC(=O)Nc3ccc4c(c3)OCO4)nc3c([nH]c4ccccc43)c2=O)c1,inactive: 81%
15,COc1cccc(Cn2c(=O)n(Cc3ccccc3)c(=O)c3c2c2cc(OC)ccc2n3C)c1,inactive: 64%
16,CCCN1CCCc2cc(CN(CCCN3CCOCC3)C(=O)Nc3ccc(Cl)c(Cl)c3)ccc21,inactive: 94%
17,Cn1c(O)c(N=NC(=S)Nc2ccccc2)c2ccccc21,inactive: 63%
18,COc1ccc(C2C3=C(CCCC3=O)NC3=C2C(=O)c2ccccc23)c(OC)c1OC (stereo unspecified),inactive: 96%
